# In the supplement of paper PMC8728848:
# This is one part of the list.
# Assays:
# Experiment in all cases: glycan array binding signal (z-score within array); higher = stronger binding
# Conditions in all cases: glycan notation: IUPAC condensed, linker removed
# [1] = target: Fuc(a1-2)Gal
# Outline: (§1)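 From the Consortium for Functional Glycomics database, 3228 arrays were curated, keeping only those whose protein sequence was available. Binding is given as a within-array Z-score averaged across arrays sharing a protein sequence and across linkers. Negative Z-scores can be read as non-binding.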
# [2] = target: Fuc(a1-2)Gal(b1-3)GalNAc
# Outline: as §1
# [3] = target: Fuc(a1-2)Gal(b1-3)GalNAc(b1-3)Gal
# Outline: as §1
# [4] = target: Fuc(a1-2)Gal(b1-3)GalNAc(b1-3)Gal(a1-4)Gal(b1-4)Glc
# Outline: as §1
# [5] = target: Fuc(a1-2)Gal(b1-3)GalNAc(b1-4)[Neu5Ac(a2-3)]Gal(b1-4)Glc
# Outline: as §1
# [6] = target: Fuc(a1-2)Gal(b1-3)GlcNAc
# Outline: as §1
# [7] = target: Fuc(a1-2)Gal(b1-3)GlcNAc(b1-2)Man(a1-3)[Fuc(a1-2)Gal(b1-3)GlcNAc(b1-2)Man(a1-6)]Man(b1-4)GlcNAc(b1-4)GlcNAc
# Outline: as §1
# [8] = target: Fuc(a1-2)Gal(b1-3)GlcNAc(b1-3)Gal(b1-4)Glc
# Outline: as §1
# [9] = target: Fuc(a1-2)Gal(b1-3)GlcNAc(b1-3)[Gal(b1-4)[Fuc(a1-3)]GlcNAc(b1-6)]Gal(b1-4)Glc
# Outline: as §1
# [10] = target: Fuc(a1-2)Gal(b1-3)[Fuc(a1-4)]GlcNAc
# Outline: as §1
# [11] = target: Fuc(a1-2)Gal(b1-3)[Fuc(a1-4)]GlcNAc(b1-2)Man(a1-3)[Fuc(a1-2)Gal(b1-3)[Fuc(a1-4)]GlcNAc(b1-2)Man(a1-6)]Man(b1-4)GlcNAc(b1-4)GlcNAc
# Outline: as §1
# [12] = target: Fuc(a1-2)Gal(b1-4)Glc
# Outline: as §1
# [13] = target: Fuc(a1-2)Gal(b1-4)Glc6S
# Outline: as §1
# [14] = target: Fuc(a1-2)Gal(b1-4)GlcNAc
# Outline: as §1
# [15] = target: Fuc(a1-2)Gal(b1-4)GlcNAc(b1-2)Man(a1-3)[Fuc(a1-2)Gal(b1-4)GlcNAc(b1-2)Man(a1-6)]Man(b1-4)GlcNAc(b1-4)GlcNAc
# Outline: as §1
# [16] = target: Fuc(a1-2)Gal(b1-4)GlcNAc(b1-3)Gal(b1-4)GlcNAc
# Outline: as §1
# [17] = target: Fuc(a1-2)Gal(b1-4)GlcNAc(b1-3)Gal(b1-4)GlcNAc(b1-3)Gal(b1-4)GlcNAc
# Outline: as §1
# [18] = target: Fuc(a1-2)Gal(b1-4)GlcNAc6S
# Outline: as §1
# [19] = target: Fuc(a1-2)Gal(b1-4)[Fuc(a1-3)]GlcNAc
# Outline: as §1
# [20] = target: Fuc(a1-2)Gal(b1-4)[Fuc(a1-3)]GlcNAc(b1-2)Man(a1-3)[Fuc(a1-2)Gal(b1-4)[Fuc(a1-3)]GlcNAc(b1-2)Man(a1-6)]Man(b1-4)GlcNAc(b1-4)GlcNAc
# Outline: as §1
# [21] = target: Fuc(a1-2)Gal(b1-4)[Fuc(a1-3)]GlcNAc(b1-3)Gal(b1-4)[Fuc(a1-3)]GlcNAc
# Outline: as §1
# [22] = target: Fuc(a1-2)Gal(b1-4)[Fuc(a1-3)]GlcNAc(b1-3)Gal(b1-4)[Fuc(a1-3)]GlcNAc(b1-3)Gal(b1-4)[Fuc(a1-3)]GlcNAc
# Outline: as §1
# [23] = target: Fuc(a1-2)Gal6S(b1-4)Glc
# Outline: as §1
# [24] = target: Fuc(a1-2)Gal6S(b1-4)Glc6S
# Outline: as §1
# [25] = target: Fuc(a1-2)Gal6S(b1-4)GlcNAc
# Outline: as §1
# [26] = target: Fuc(a1-2)[Gal(a1-3)]Gal
# Outline: as §1
# [27] = target: Fuc(a1-2)[Gal(a1-3)]Gal(b1-3)GlcNAc
# Outline: as §1
# [28] = target: Fuc(a1-2)[Gal(a1-3)]Gal(b1-3)GlcNAc(b1-2)Man(a1-3)[Fuc(a1-2)[Gal(a1-3)]Gal(b1-3)GlcNAc(b1-2)Man(a1-6)]Man(b1-4)GlcNAc(b1-4)GlcNAc
# Outline: as §1
# [29] = target: Fuc(a1-2)[Gal(a1-3)]Gal(b1-4)Glc
# Outline: as §1
# [30] = target: Fuc(a1-2)[Gal(a1-3)]Gal(b1-4)GlcNAc
# Outline: as §1
# [31] = target: Fuc(a1-2)[Gal(a1-3)]Gal(b1-4)GlcNAc(b1-2)Man(a1-3)[Fuc(a1-2)[Gal(a1-3)]Gal(b1-4)GlcNAc(b1-2)Man(a1-6)]Man(b1-4)GlcNAc(b1-4)GlcNAc
# Outline: as §1
# [32] = target: Fuc(a1-2)[Gal(a1-3)]Gal(b1-4)[Fuc(a1-3)]GlcNAc
# Outline: as §1
# [33] = target: Fuc(a1-2)[Gal(a1-4)]Gal(b1-4)GlcNAc
# Outline: as §1
# [34] = target: Fuc(a1-2)[GalNAc(a1-3)]Gal
# Outline: as §1
# [35] = target: Fuc(a1-2)[GalNAc(a1-3)]Gal(b1-3)GlcNAc
# Outline: as §1
# [36] = target: Fuc(a1-2)[GalNAc(a1-3)]Gal(b1-3)GlcNAc(b1-2)Man(a1-3)[Fuc(a1-2)[GalNAc(a1-3)]Gal(b1-3)GlcNAc(b1-2)Man(a1-6)]Man(b1-4)GlcNAc(b1-4)GlcNAc
# Outline: as §1
# [37] = target: Fuc(a1-2)[GalNAc(a1-3)]Gal(b1-4)Glc
# Outline: as §1
binder,measurement,setting,value
"LcH (Lens culinaris), P02870 (protein) TETTSFSITKFSPDQQNLIFQGDGYTGKEGLTLTKVSKETGGRALYSTPIHIWDRDTVNVANFVTNGSQVFRESPNGYNVADGFTFFIAPVDTKPQTGGGYLGVFYNGKEYDKTSQTVAVEFDTFYNAAWDPSNKERHIGIDVNSIKSVNTKSWNLQNGVTSYTLNEVVPLKDVVPEWVRIGFSATTGAEFAAQEVHSWSFNSQLGHTSKS",glycan array binding signal (z-score),[1],-0.112
same,glycan array binding signal (z-score),[2],-0.119
same,glycan array binding signal (z-score),[3],-0.056
same,glycan array binding signal (z-score),[4],-0.126
same,glycan array binding signal (z-score),[5],-0.124
same,glycan array binding signal (z-score),[6],-0.101
same,glycan array binding signal (z-score),[7],-0.093
same,glycan array binding signal (z-score),[8],-0.117
same,glycan array binding signal (z-score),[9],-0.124
same,glycan array binding signal (z-score),[10],-0.119
same,glycan array binding signal (z-score),[11],-0.091
same,glycan array binding signal (z-score),[12],-0.111
same,glycan array binding signal (z-score),[13],-0.04
same,glycan array binding signal (z-score),[14],-0.142
same,glycan array binding signal (z-score),[15],-0.109
same,glycan array binding signal (z-score),[16],-0.141
same,glycan array binding signal (z-score),[17],-0.089
same,glycan array binding signal (z-score),[18],-0.104
same,glycan array binding signal (z-score),[19],-0.149
same,glycan array binding signal (z-score),[20],-0.075
same,glycan array binding signal (z-score),[21],-0.122
same,glycan array binding signal (z-score),[22],-0.059
same,glycan array binding signal (z-score),[23],-0.128
same,glycan array binding signal (z-score),[24],-0.104
same,glycan array binding signal (z-score),[25],-0.126
same,glycan array binding signal (z-score),[26],-0.122
same,glycan array binding signal (z-score),[27],-0.136
same,glycan array binding signal (z-score),[28],-0.096
same,glycan array binding signal (z-score),[29],-0.106
same,glycan array binding signal (z-score),[30],-0.099
same,glycan array binding signal (z-score),[31],-0.119
same,glycan array binding signal (z-score),[32],-0.092
same,glycan array binding signal (z-score),[33],-0.121
same,glycan array binding signal (z-score),[34],-0.074
same,glycan array binding signal (z-score),[35],-0.093
same,glycan array binding signal (z-score),[36],-0.117
same,glycan array binding signal (z-score),[37],-0.127
